Experiment [1] deals with T1, HER3 on HER3-expressing tumor cells (human, UniProt P21860 20-1342).
T1 construct: Endogenous HER3 of human tumor cell lines (MCF-7, FaDu, BT474, A431, NCI-N87, A549, SKBR-3, Colo205, HCT-116, A375 and melanoma lines); also called cellular receptor HER3; cell surface expressed HER3
The experiment in a line: flow cytometry, FaDu cells (carry HER2 and HER3; bispecific, number not split between the two targets). A general note: In flow cytometry, cells or beads pass a laser one at a time.

For experiment [2], the target named is T2, HER3-His (HER3 aa 27-599 of the extracellular domain fused C-terminally with a hexahistidyl-tag) (human, UniProt P21860 in part).
T2 construct: also called soluble His-tagged HER3; His-tagged extracellular domain of HER3; not shown: C-terminal hexahistidyl-tag
The experiment in a line: ELISA, coated HER3-His. In general terms: ELISA stands for enzyme-linked immunosorbent assay.

Experiment [3] concerns the target T3, HER3-Fc fusion comprising the extracellular domain (aa 27-599) of human HER3 (human, UniProt P21860 in part).
T3 construct: also called HER3-Fc fusion protein; not shown: Fc part
The experiment in a line: ELISA, coated HER3-Fc (aa 27-599), anti-His-HRP.

In another experiment the target is T4, HER3-ECD protein (Homo sapiens (Human), UniProt P21860 in part).
T4 construct: also called receptor-ECD protein
The experiment in a line: ELISA, immobilized HER3-ECD.

For a further experiment, the target named is T5, HER2-ECD protein (UniProt P04626 in part, limits assumed).
T5 construct: extracellular domain
The experiment in a line: ELISA, immobilized HER2-ECD.

Experiment [4] has as its target T1, HER3 on HER3-expressing tumor cells. The experiment in a line: flow cytometry, HER3-positive A375 cells, anti-human IgG R-PE.
Experiment [5] has the same target. The experiment in a line: cell-based or functional assay.
The target is the same in experiment [6]. The experiment in a line: cell-based or functional assay. The source holds these as a separate data set.
For experiment [7], the target named is T6, TRAIL-R2 on Colo205 and HCT-116 cells (UniProt O14763 56-440, limits assumed).
T6 construct: whole, on cells; also called cell surface expressed TRAIL-R2
The experiment in a line: flow cytometry on Colo205 cells, which express HER3 and TRAIL receptors; the signal is not separated between the two targets.

B1: scDb 4D5x3-43-Fc (bispecific antibody)
chain: [no letters for about 120 residues]GGGGSQAGLTQPPAVSVAPGQTASITCGRDNIGSRSVHWYQQKPGQAPVLVVYDDSDRPAGIPERFSGSNYENTATLTISRVEAGDEADYYCQVWGITSDHVVFGGGTKLTVLGGGGSGGRASGGGGSGGGGSQVQLQQSGPGLVKPSQTLSLTCAISGDSVSSNRAAWNWIRQSPSRGLEWLGRTYYRSKWYNDYAQSLKSRITINPDTPKNQFSLQLNSVTPEDTAVYYCARDGQLGLDALDIWGQGTMVTVSSGGGGS[no letters for about 100 residues]RAAAGGSGG[no letters for human IgG1 Fc]
notes: also called scDb 4D5x3-43-LL-Fc; scDb-Fc
As to B1, the EC50 (in general, the midpoint of the concentration-response curve) in experiment [1] turned out to be 2.9 nM; in experiment [2], 1.9 nM.

B2: scDb4D5x3-43-LL (bispecific antibody)
chain: DAAQPAMA[no letters for about 120 residues]GGGGSQAGLTQPPAVSVAPGQTASITCGRDNIGSRSVHWYQQKPGQAPVLVVYDDSDRPAGIPERFSGSNYENTATLTISRVEAGDEADYYCQVWGITSDHVVFGGGTKLTVLGGGGSGGRASGGGGSGGGGSQVQLQQSGPGLVKPSQTLSLTCAISGDSVSSNRAAWNWIRQSPSRGLEWLGRTYYRSKWYNDYAQSLKSRITINPDTPKNQFSLQLNSVTPEDTAVYYCARDGQLGLDALDIWGQGTMVTVSSGGGGS[no letters for about 120 residues]
notes: Bivalent: one site for HER2 (4D5), one for HER3 (3-43); purified by IMAC and detected by anti-His antibody
Turning to B2, the EC50 in experiment [3] stood at 0.93 nM.

B3: scDb 2-35x3-43-Fc (bispecific antibody)
chain: QLVQSGAEVKKPGESLKISCKGSGYSFTSYWIGWVRQMPGKGLEWMGIIYPGDSDTRYSPSFQGQVTISADKSISTAYLQWSSLKASDTAMYYCARLGRSGSYYNYGMDVWGQGTTVTVSSGGGGSQAGLTQPPAVSVAPGQTASITCGRDNIGSRSVHWYQQKPGQAPVLVVYDDSDRPAGIPERFSGSNYENTATLTISRVEAGDEADYYCQVWGITSDHVVFGGGTKLTVLGGGGSGGRASGGGGSQVQLQQSGPGLVKPSQTLSLTCAISGDSVSSNRAAWNWIRQSPSRGLEWLGRTYYRSKWYNDYAQSLKSRITINPDTPKNQFSLQLNSVTPEDTAVYYCARDGQLGLDALDIWGQGTMVTVSSGGGGSQAVVTQEPSFSVSPGGTVTLTCGLSSGSVSSSYYPSWYQQTSGQPPRTLIYSTDTRSSGVPDRFSGSILGDKAALTITGAQADDESDYYCMLYMGSGISVFGGGTKLAVLAAAGGSGG[no letters for human IgG1 Fc]
notes: also called 2-35 x 3-43 scDb-Fc; scDb-Fc
For the molecule B3, the concentration giving a half-maximal response (EC50) is 0.24 nM with HER3-ECD protein and about 1.5 nM in the experiment with HER2-ECD protein.

B4: scFv3-43-Fc-scTRAIL (other)
chain: KDDDDKGGGGSGTQVQLQQSGPGLVKPSQTLSLTCAISGDSVSSNRAAWNWIRQSPSRGLEWLGRTYYRSKWYNDYAQSLKSRITINPDTPKNQFSLQLNSVTPEDTAVYYCARDGQLGLDALDIWGQGTMVTVSSGGGGSGGGGSGGGGSQAGLTQPPAVSVAPGQTASITCGRDNIGSRSVHWYQQKPGQAPVLVVYDDSDRPAGIPERFSGSNYENTATLTISRVEAGDEADYYCQVWGITSDHVVFGGGTKLTVLAAAGGSGG[no letters for human IgG1 Fc]GGSGGGSSGGGPQRVAAHITGTRGRSNTLSSPNSKNEKALGRKINSWESSRSGHSFLSNLHLRNGELVIHEKGFYYIYSQTYFRFQEEIKENTKNDKQMVQYIYKYTSYPDPILLMKSARNSCWSKDAEYGLYSIYQGGIFELKENDRIFVSVTNEHLIDMDHEASFFGAFLVGGGPQRVAAHITGTRGRSNTLSSPNSKNEKALGRKINSWESSRSGHSFLSNLHLRNGELVIHEKGFYYIYSQTYFRFQEEIKENTKNDKQMVQYIYKYTSYPDPILLMKSARNSCWSKDAEYGLYSIYQGGIFELKENDRIFVSVTNEHLIDMDHEASFFGAFLVGGGPQRVAAHITGTRGRSNTLSSPNSKNEKALGRKINSWESSRSGHSFLSNLHLRNGELVIHEKGFYYIYSQTYFRFQEEIKENTKNDKQMVQYIYKYTSYPDPILLMKSARNSCWSKDAEYGLYSIYQGGIFELKENDRIFVSVTNEHLIDMDHEASFFGAFLVG
notes: Dimeric through the Fc part; also called anti-HER3 scFv-Fc-scTRAIL fusion protein
B4: in experiment [4], the midpoint of the response, the EC50, lay at 1.19 nM. In experiment [5], the “cell death induction, A375, +BZB (EC50)” value turned out to be 0.00072 nM; the “cell death induction, MeWo, +BZB (EC50)” value is 0.00463 nM; the “cell death induction, Mel-Juso, +BZB (EC50)” value turned out to be 0.001 nM; the “cell death induction, WM35, +BZB (EC50)” value came to 0.00017 nM. Also, in [5], the “cell death induction, WM35, -BZB (EC50)” value was 0.00496 nM; the “cell death induction, WM793, +BZB (EC50)” value was 0.00039 nM; the “cell death induction, WM793, -BZB (EC50)” value was 0.00425 nM; the “cell death induction, WM1366, +BZB (EC50)” value stood at 0.00358 nM. The “cell death induction, WM1366, -BZB (EC50)” value in [5] was 0.0482 nM. Further, in experiment [6], the “cell death induction on Colo205, w/o blocking antibody, 650 nM BZB (EC50)” value was 0.0067 nM; the “cell death induction on Colo205, w/o blocking antibody, w/o BZB (EC50)” value was 0.031 nM; the “cell death induction on Colo205, with blocking antibody scFv3-43-Fc (200x molar excess), 650 nM BZB (EC50)” value is 0.0326 nM; the “cell death induction on Colo205, with blocking antibody scFv3-43-Fc (200x molar excess), w/o BZB (EC50)” value came to 0.217 nM. For the same molecule, the binding result in experiment [7] is on record as “binds”.

The values are drawn from patent US20190194350A1 (UNIVERSITAT STUTTGART, published 2019).
